Data from the supplement of paper PMC10126150.
Sequences with one replicate were seen in a single cluster, so their values are uncertain.

The sequences below were run on ATP (assay: switch fluorescence ratio, 500 uM ATP over buffer (Cy3 cluster intensity, sum of 5 cycles each) (fold (ratio)); higher = stronger signal-on switching upon ATP binding; sequences stand for … in TCGTCGGCAGCGTCAGATGTGTATAAGAGACAGTTTTTTTTTTTTTTTTTTTTTTTTT…TC). Conditions: aptamer strand: ATP DNA aptamer (quencher-CACCTGGGGGAGTATTGCGGAGGAAGG + anchor), 100 nM annealed; ATP concentration: 500 uM; one replicate.
Summary of the method: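 Clusters with intensities outside 100-1000 RFU were excluded. The remaining Cy3-labelled switching-strand clusters on a modified Illumina MiSeq flow-cell had been annealed to 100 nM quencher-labelled ATP aptamer and imaged in selection buffer, then after 15 min with 500 uM ATP at 22 °C, for five cycles separated by NaOH stripping and re-annealing. The fluorescence ratio, averaged per switch-domain sequence, is each cluster's summed target-cycle Cy3 intensity over its summed buffer-cycle Cy3 intensity.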
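Also: ATP exposure 15 min at 22 °C before imaging.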

Sequence | switch fluorescence ratio
TTCTCGGTCC | 1.01
TTCTCGTTC | 1.02
TTCTCTTAGG | 0.996
TTCTGAAATT | 1.03
TTCTGAACGG | 1
TTCTGACCTA | 1.05
TTCTGATCTC | 1.01
TTCTGCCCCA | 1.02
TTCTGCGGG | 1
TTCTGCGGGT | 1.06
TTCTGGCGAT | 0.991
TTCTGTAAAG | 0.994
TTCTGTACTC | 1.46
TTCTTACGTT | 1.01
TTCTTACTCT | 1.05
TTCTTCAACA | 1.01
TTCTTCAGCT | 1.02
TTCTTCGGTG | 0.992
TTCTTGCGAA | 1.02
TTCTTGCGTT | 0.972
TTCTTGTATT | 0.979
TTCTTGTCAC | 1.08

Sequence | switch fluorescence ratio
TTCTTTCCTC | 1.01
TTCTTTGAGG | 1.04
TTCTTTGAGT | 1.04
TTGAAAAGT | 1.03
TTGAAAATC | 1.1
TTGAAAGCCG | 1.14
TTGACACGGA | 1.09
TTGACAGCGG | 1.12
TTGACAGTGA | 0.977
TTGACATCA | 1.05
TTGACATTGA | 0.967
TTGACCCCGC | 1.11
TTGACCGTGT | 0.995
TTGACCTATT | 1.05
TTGACGTAGC | 1.27
TTGACTACCG | 0.958
TTGACTATGG | 1.06
TTGACTCTTC | 0.966
TTGACTGATT | 1.05
TTGACTTAAT | 1.05
TTGACTTCTC | 1.01
TTGAGAACTA | 0.958

Sequence | switch fluorescence ratio
TTGAGCTGAC | 1.1
TTGAGCTGAT | 0.961
TTGAGGAGTA | 1.04
TTGAGTCTTT | 1.03
TTGATAAAGA | 1.02
TTGATAAGGG | 0.992
TTGATAATGG | 1.04
TTGATAGCGG | 1.04
TTGATATATG | 1.02
TTGATATGTC | 1
TTGATCCTTG | 1
TTGATCGTG | 0.947
TTGATCTTCG | 0.981
TTGATGAGGG | 0.927
TTGATGCTT | 0.962
TTGATGGCGC | 0.984
TTGATTTGGA | 1.07
TTGCAACAAA | 1.04
TTGCAACTAC | 2.18
TTGCACTCGC | 0.977
TTGCAGAATG | 1.02
TTGCAGGGGC | 1.04

Sequence | switch fluorescence ratio
TTGCAGTGTG | 1.01
TTGCAGTTTC | 1.02
TTGCATATCA | 1.13
TTGCATCAGT | 0.997
TTGCCAGGCA | 0.984
TTGCCCCGAC | 1.04
TTGCCGTTTG | 0.927
TTGCCTCCAA | 1.13
TTGCGAGAAA | 1.01
TTGCGAGCAT | 1.04
TTGCGAGGCG | 0.966
TTGCGAGGCT | 1.04
TTGCGCCTC | 0.984
TTGCGCGCTT | 0.971
TTGCGGTCAC | 1
TTGCGTACT | 1.11
TTGCGTATTC | 1.31
TTGCGTTAGT | 1.04
TTGCGTTTCG | 1.02
